# Source: PubChem BioAssay (NCATS)
# Inconclusive means that the source gave no clear call. Such entries were picked first, then a sample of the others. Potencies of inconclusive entries are doubtful fits and often do not repeat. Activity calls are given as the source filed them. Calls follow the shape of the dose curve; as a rule, active = well fitted curve in the direction sought with a large enough effect; inconclusive = small, poorly fitted or top-dose-only effect, or another doubt; inactive = no such curve, though single readings can be large; an effect the other way counts as inactive or inconclusive.
# Molecular target: Rap guanine nucleotide exchange factor 3 (Homo sapiens) (UniProt O95398)
# UniProt O95398, sequence (O95398 whole entry, looked up): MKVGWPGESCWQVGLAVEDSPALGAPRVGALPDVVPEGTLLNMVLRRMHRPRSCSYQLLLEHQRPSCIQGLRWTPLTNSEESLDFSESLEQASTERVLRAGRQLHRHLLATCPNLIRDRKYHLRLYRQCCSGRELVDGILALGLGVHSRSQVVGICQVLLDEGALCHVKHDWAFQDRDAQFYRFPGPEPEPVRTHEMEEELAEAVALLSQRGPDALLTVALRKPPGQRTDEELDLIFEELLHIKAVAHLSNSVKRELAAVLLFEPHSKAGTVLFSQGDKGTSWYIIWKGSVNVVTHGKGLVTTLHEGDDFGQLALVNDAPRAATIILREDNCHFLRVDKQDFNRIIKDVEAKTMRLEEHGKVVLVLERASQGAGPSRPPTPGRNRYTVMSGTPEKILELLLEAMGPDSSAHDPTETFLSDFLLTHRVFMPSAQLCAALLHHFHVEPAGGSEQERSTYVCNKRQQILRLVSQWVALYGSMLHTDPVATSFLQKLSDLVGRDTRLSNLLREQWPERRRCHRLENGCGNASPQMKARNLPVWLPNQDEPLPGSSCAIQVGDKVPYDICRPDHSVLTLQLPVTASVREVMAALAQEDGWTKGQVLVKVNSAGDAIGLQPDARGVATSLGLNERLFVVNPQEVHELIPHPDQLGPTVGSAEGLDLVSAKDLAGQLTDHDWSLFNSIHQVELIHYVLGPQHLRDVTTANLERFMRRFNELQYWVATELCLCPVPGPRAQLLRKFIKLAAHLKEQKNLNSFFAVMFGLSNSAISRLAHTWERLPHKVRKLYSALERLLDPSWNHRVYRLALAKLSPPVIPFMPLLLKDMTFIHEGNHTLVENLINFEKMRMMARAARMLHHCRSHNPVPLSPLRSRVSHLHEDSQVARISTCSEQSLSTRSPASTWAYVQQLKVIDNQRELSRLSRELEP
# Test: Confirmatory qHTS for antagonist of cAMP-regulated guanine nucleotide exchange factor 3 (EPAC1) (AID 1645880); also: nearly all actives have a fitted effect of over 55% in size;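 as to activity, negative = inhibition: plate controls were DMSO only for no effect and full effect of the ATA control for full effect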
# Settings: EPAC1 Rap1B-BODIPY-GDP exchange, fluorescence; activity, negative = inhibition: at 115 µM (top of the series)
# Method in brief: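 Nucleotide exchange uses 100 nM EPAC1, 250 nM RAP1B-BODIPY-GDP and 50 uM GDP, with compounds in a concentration-titration series. After 5 min at room temperature, fluorescence (480 nm ex/540 nm em) is read every 5 min for 30 min. Data are normalized to control ATA and DMSO.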
# Potency is read from the fitted curve at half-maximal effect; tags tell the direction and shape of the fitted curve.
SMILES,Potency,"activity, negative = inhibition"
CC(C)Oc1cccc(C(=O)Nc2ccc3oc(-c4cccc(Cl)c4)nc3c2)c1,"inconclusive: 84.9 µM [inhibitor, partial curve, poor fit]",
CC(C)Cc1ccc(CN2C(C(C)C)C(=O)N(Cc3cn(CCC4OCCO4)nn3)CCS2(=O)=O)cc1 (stereo not given),"inconclusive: 56.2 µM [inhibitor, partial curve, poor fit]",
Cc1nn(CCc2nn[nH]n2)c2nc(-c3ccc(Br)cc3)cc(C(F)(F)F)c12,"inconclusive: 84.9 µM [inhibitor, partial curve]",
CC1(Cc2ccccc2Cl)C(=O)Nc2c(Cl)cccc21 (stereo not given),"inconclusive: 0.891 µM [inhibitor, full curve, poor fit]",
Cc1ccc(Cn2c(SCC(=O)N/N=C/c3ccc(C)o3)nc3ccccc32)cc1,active: 47.8 µM,
COc1ccc(C(CCN(Cc2ccc(OC)c(OC)c2)C(C)=O)C(C)C)cc1 (stereo not given),"inconclusive: 0.0379 µM [inhibitor, full curve]",
CCOc1ccc(C(C(=O)NC2CCCC2)N(C(=O)c2snc(C(N)=O)c2N)C2CCCC2)cc1 (stereo not given),,inactive: -18.5%
N#C/C(=C/C1=C(N2CCOCC2)C(=C/c2cccc([N+](=O)[O-])c2)/CC1)C(=O)Nc1ccccc1F,"inconclusive: 79.4 µM [inhibitor, single point]",
Cc1cc(C)c(OCC(=O)N(Cc2ccco2)Cc2ccco2)c(C)c1,"inconclusive: 95.3 µM [inhibitor, partial curve, poor fit]",
CCOc1cc(/C=C2\SC(=S)N(NS(=O)(=O)c3ccc(C)cc3)C2=O)ccc1O,active: 19 µM,
CCc1ccc(/C=C2\SC(=S)N(CCCC(=O)Nc3ccccc3C(=O)O)C2=O)cc1,"inconclusive: 56.2 µM [inhibitor, partial curve, poor fit]",
Cc1oc2ccc(O)c(CN(C)Cc3ccccc3)c2c1C(=O)Nc1cccc(C(F)(F)F)c1,"inconclusive: 84.9 µM [inhibitor, partial curve]",
O=Nc1c(O)n(Cc2cccc(C(F)(F)F)c2)c2ccccc12,"inconclusive: 75.7 µM [inhibitor, partial curve, poor fit]",
O=C(COC(=O)c1nc(Cl)ccc1Cl)c1ccccc1Cl,,inactive: -28.4%
CN(C)S(=O)(=O)N(CC(=O)NCCSc1ccc(Cl)cc1)c1ccccc1,"inconclusive: 95.3 µM [inhibitor, single point]",
O=C(O)c1ccc(-c2nc(-c3ccc(Cl)cc3Cl)cs2)cc1,"inconclusive: 56.2 µM [inhibitor, partial curve, poor fit]",
CCCCCCn1nc(C(=O)OCC(=O)c2c(N)n(C)c(=O)n(C)c2=O)c2ccccc2c1=O,"inconclusive: 67.5 µM [inhibitor, partial curve, poor fit]",
O=[N+]([O-])c1cc2oc3c(c2c(C=NCc2ccncc2)c1O)CCCC3,"inconclusive: 25.1 µM [inhibitor, full curve]",
C/C(=N\NC(=O)c1cc2ccccc2cc1O)c1cc2ccccc2o1,active: 37.9 µM,
COc1cc(/C=N/NC(=O)c2ccccc2)ccc1O,,inactive: -12.8%
CCC(C)Cn1c(O)cc2nn(-c3nc4ccccc4s3)c(=O)c-2c1C (stereo not given),"inconclusive: 39.8 µM [inhibitor, partial curve]",
CCOC(=O)c1ccc(NC(=O)Cn2nc(C)c3nn(-c4ccc(Cl)cc4)c(C)c3c2=O)cc1,,inactive: -29.6%
COc1ccc(NC(=O)c2c[nH]n3c(=O)cc(C4CCN(C(=O)OC(C)(C)C)CC4)nc23)cc1Cl,active: 67.5 µM,
Cc1ccc(C(=O)Nc2cccc(-c3ccc(N4CCOCC4)nn3)c2)cc1C,"inconclusive: 47.8 µM [inhibitor, partial curve, poor fit]",
O=C(NC1CCCCC1)C(c1ccc(-c2ccccc2)cc1)n1c(=O)c(-c2ccco2)nc2ccccc21 (stereo not given),"inconclusive: 33.8 µM [inhibitor, partial curve]",
COc1ccc2sc(-c3ccc(N(C)C)cc3)c(C#CC(C)(C)O)c2c1,"inconclusive: 19 µM [inhibitor, partial curve, poor fit]",
COc1ccc(C2C=C(c3ccc(Br)cc3)Nc3nnnn32)c(OC)c1 (stereo not given),"inconclusive: 95.3 µM [inhibitor, partial curve, poor fit]",
Cc1ccc(S(=O)(=O)N2[C@@H](c3ccc(Br)cc3)C(C(=O)O)=CC[C@H]2c2ccc(C(C)C)cc2)cc1,active: 16.9 µM,

# Molecular target: Rap guanine nucleotide exchange factor 3 (Homo sapiens) (UniProt O95398)
# Test: Counterscreen qHTS for agonist of cAMP-regulated guanine nucleotide exchange factor 3 (EPAC1) (AID 1645889); also: nearly all actives have a fitted effect of over 40% in size; as to activation: % of control where 0% means no effect
# Settings: EPAC1 Rap1B-BODIPY-GDP exchange, fluorescence; activation: at 154 µM (top of the series) unless noted
# Method in brief: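 Rap1B-BODIPY-GDP 250 nM + GDP 50 uM; cpds 7-pt, final 9.74 nM–152 uM (activator mode) or from 7.32 nM upwards (inhibitor mode); RT; FI 480/540 nm at 5 and 30 min, then ± cAMP, reread.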
SMILES,Potency,activation
COc1ccc(S(=O)(=O)N2CCOC23CCN(S(=O)(=O)c2cccs2)CC3)cc1,"inconclusive: 0.0398 µM [activator, full curve, poor fit]",
COc1ccc(S(=O)(=O)N2CCCCCC2)cc1C(=O)N1CCCC(C(F)(F)F)C1 (stereo not given),,inconclusive: 41.6% [activator] [at 30.8 µM]
CCc1ccc2c(c1)NC(=O)C2(C)Cc1ccccc1OC (stereo not given),,inactive: 11.8%
O=S(=O)(NCC(c1cccnc1)N1CCN(c2ccccc2F)CC1)c1cccs1 (stereo not given),,inconclusive: 50% [activator] [at 30.8 µM]
CCCC1=C/C(=C/c2ccc(-c3ccccc3OC)o2)C(=O)O1,"inconclusive: 3.16 µM [activator, full curve, poor fit]",
C[C@@H]1CN([C@@H](C)CO)C(=O)c2ccccc2-c2ccccc2CO[C@@H]1CN(C)S(=O)(=O)c1ccc(C(F)(F)F)cc1,"inconclusive: 0.0708 µM [activator, full curve, poor fit]",
CC(=O)O[C@H]1c2ccccc2-c2ccccc2[C@@H]1OC(C)=O,,inactive: 8.91% [at 30.8 µM]
COc1cc(OC)c(NC(=O)N2CCC(CN3CCOCC3)CC2)cc1Cl,,inconclusive: 42.9% [activator]
Cc1cccc(Cn2c(COc3ccccc3)nc3ccccc32)c1,"inconclusive: 11.2 µM [activator, partial curve, poor fit]",
CCC(C)[C@H]1COCCS(=O)(=O)N1Cc1ccc(Cl)cc1Cl (stereo not given in full),,inactive: 13.7%
CC(OC(=O)CC1CCCCC1)C(=O)Nc1ccc(S(N)(=O)=O)cc1 (stereo not given),,inactive: 15.8% [at 30.8 µM]
Cc1ccc(NC(=O)Cn2nc(C)c3nn(-c4ccc(Cl)cc4)c(C)c3c2=O)cc1F,,inconclusive: 32% [activator]
CC(C)Oc1cccc(C(=O)Nc2ccc3oc(-c4cccc(Cl)c4)nc3c2)c1,,inconclusive: 53.2% [activator]
CC(C)Cc1ccc(CN2C(C(C)C)C(=O)N(Cc3cn(CCC4OCCO4)nn3)CCS2(=O)=O)cc1 (stereo not given),,inconclusive: 58.4% [activator] [at 30.8 µM]
Cc1nn(CCc2nn[nH]n2)c2nc(-c3ccc(Br)cc3)cc(C(F)(F)F)c12,,inactive: -2.65%
CC1(Cc2ccccc2Cl)C(=O)Nc2c(Cl)cccc21 (stereo not given),,inactive: 5.68% [at 30.8 µM]
Cc1ccc(Cn2c(SCC(=O)N/N=C/c3ccc(C)o3)nc3ccccc32)cc1,,inactive: -3.32%
COc1ccc(C(CCN(Cc2ccc(OC)c(OC)c2)C(C)=O)C(C)C)cc1 (stereo not given),,inactive: 1.17%
CCOc1ccc(C(C(=O)NC2CCCC2)N(C(=O)c2snc(C(N)=O)c2N)C2CCCC2)cc1 (stereo not given),,inactive: 21.2%

SMILES,Potency,activation
N#C/C(=C/C1=C(N2CCOCC2)C(=C/c2cccc([N+](=O)[O-])c2)/CC1)C(=O)Nc1ccccc1F,,inconclusive: 34.1% [activator] [at 30.8 µM]
Cc1cc(C)c(OCC(=O)N(Cc2ccco2)Cc2ccco2)c(C)c1,,inactive: 12.1%
CCOc1cc(/C=C2\SC(=S)N(NS(=O)(=O)c3ccc(C)cc3)C2=O)ccc1O,,inactive: 5.6%
CCc1ccc(/C=C2\SC(=S)N(CCCC(=O)Nc3ccccc3C(=O)O)C2=O)cc1,,inconclusive: 55.8% [activator] [at 30.8 µM]
Cc1oc2ccc(O)c(CN(C)Cc3ccccc3)c2c1C(=O)Nc1cccc(C(F)(F)F)c1,,inactive: -22.9%
O=Nc1c(O)n(Cc2cccc(C(F)(F)F)c2)c2ccccc12,,inactive: 4.09%
O=C(COC(=O)c1nc(Cl)ccc1Cl)c1ccccc1Cl,,inconclusive: 52.8% [activator]
CN(C)S(=O)(=O)N(CC(=O)NCCSc1ccc(Cl)cc1)c1ccccc1,,inconclusive: 35.3% [activator]
O=C(O)c1ccc(-c2nc(-c3ccc(Cl)cc3Cl)cs2)cc1,,inconclusive: 33.7% [activator] [at 30.8 µM]
CCCCCCn1nc(C(=O)OCC(=O)c2c(N)n(C)c(=O)n(C)c2=O)c2ccccc2c1=O,,inactive: 11.8%
O=[N+]([O-])c1cc2oc3c(c2c(C=NCc2ccncc2)c1O)CCCC3,,inactive: 15.1% [at 30.8 µM]
C/C(=N\NC(=O)c1cc2ccccc2cc1O)c1cc2ccccc2o1,,inconclusive: 52.4% [activator]
COc1cc(/C=N/NC(=O)c2ccccc2)ccc1O,,inconclusive: 25.5% [activator]
CCC(C)Cn1c(O)cc2nn(-c3nc4ccccc4s3)c(=O)c-2c1C (stereo not given),"inconclusive: 0.562 µM [activator, full curve, poor fit]",
CCOC(=O)c1ccc(NC(=O)Cn2nc(C)c3nn(-c4ccc(Cl)cc4)c(C)c3c2=O)cc1,,inconclusive: 56.1% [activator]
COc1ccc(NC(=O)c2c[nH]n3c(=O)cc(C4CCN(C(=O)OC(C)(C)C)CC4)nc23)cc1Cl,"inconclusive: 0.1 µM [activator, partial curve, poor fit]",
Cc1ccc(C(=O)Nc2cccc(-c3ccc(N4CCOCC4)nn3)c2)cc1C,"inconclusive: 14.1 µM [activator, partial curve, poor fit]",
O=C(NC1CCCCC1)C(c1ccc(-c2ccccc2)cc1)n1c(=O)c(-c2ccco2)nc2ccccc21 (stereo not given),"inconclusive: 0.398 µM [activator, full curve, poor fit]",
